{"source": "the supplement of paper PMC10126150", "note": "Sequences with one replicate were seen in a single cluster, so their values are uncertain."}
{"system": "ATP", "test": "switch fluorescence ratio, 500 uM ATP over buffer (Cy3 cluster intensity, sum of 5 cycles each) (fold (ratio)); higher = stronger signal-on switching upon ATP binding; sequences stand for … in TCGTCGGCAGCGTCAGATGTGTATAAGAGACAGTTTTTTTTTTTTTTTTTTTTTTTTT…TC", "conditions": "aptamer strand: ATP DNA aptamer (quencher-CACCTGGGGGAGTATTGCGGAGGAAGG + anchor), 100 nM annealed; ATP concentration: 500 uM; one replicate", "outline": "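Exposure to 500 uM ATP lasted 15 min at 22 °C before imaging, and a selection-buffer image was taken beforehand, for Cy3-labelled switching-strand clusters on a modified Illumina MiSeq flow-cell annealed to 100 nM quencher-labelled ATP aptamer. Five buffer/ATP cycles were run with NaOH stripping and re-annealing between them. The fluorescence ratio per cluster is summed target-cycle over summed buffer-cycle Cy3 intensity, averaged per switch-domain sequence. Clusters outside 100-1000 RFU were excluded.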"}
{"sequence": "GCGCAAATCT", "switch fluorescence ratio": 1.01}
{"sequence": "GCGCAATATT", "switch fluorescence ratio": 4.6}
{"sequence": "GCGCAATCGA", "switch fluorescence ratio": 3.2}
{"sequence": "GCGCACACAG", "switch fluorescence ratio": 1.05}
{"sequence": "GCGCAGAACA", "switch fluorescence ratio": 0.959}
{"sequence": "GCGCAGCACT", "switch fluorescence ratio": 1.03}
{"sequence": "GCGCCCAATT", "switch fluorescence ratio": 1.16}
{"sequence": "GCGCCCACGT", "switch fluorescence ratio": 0.99}
{"sequence": "GCGCGAGCAG", "switch fluorescence ratio": 1.01}
{"sequence": "GCGCGATAAT", "switch fluorescence ratio": 1.69}
{"sequence": "GCGCGTAGAG", "switch fluorescence ratio": 1.06}
{"sequence": "GCGCGTAGAT", "switch fluorescence ratio": 1.04}
{"sequence": "GCGCGTTGGG", "switch fluorescence ratio": 1.02}
{"sequence": "GCGCTACACT", "switch fluorescence ratio": 1.28}
{"sequence": "GCGCTACAGG", "switch fluorescence ratio": 1.08}
{"sequence": "GCGCTGCAGA", "switch fluorescence ratio": 0.984}
{"sequence": "GCGCTTAACA", "switch fluorescence ratio": 1.03}
{"sequence": "GCGCTTATT", "switch fluorescence ratio": 1.04}
{"sequence": "GCGGAAAAGG", "switch fluorescence ratio": 0.982}
{"sequence": "GCGGAAAGGT", "switch fluorescence ratio": 0.974}
{"sequence": "GCGGAACCT", "switch fluorescence ratio": 1.95}
{"sequence": "GCGGAACCTT", "switch fluorescence ratio": 0.953}
{"sequence": "GCGGAAGGAT", "switch fluorescence ratio": 0.994}
{"sequence": "GCGGAATCTA", "switch fluorescence ratio": 1.07}
{"sequence": "GCGGACACAT", "switch fluorescence ratio": 1.01}
{"sequence": "GCGGACGCTT", "switch fluorescence ratio": 1.02}
{"sequence": "GCGGACGGGG", "switch fluorescence ratio": 0.996}
{"sequence": "GCGGATAAGT", "switch fluorescence ratio": 0.928}
{"sequence": "GCGGATTGG", "switch fluorescence ratio": 1.03}
{"sequence": "GCGGCAACAA", "switch fluorescence ratio": 1.01}
{"sequence": "GCGGCATAAG", "switch fluorescence ratio": 1.01}
{"sequence": "GCGGCCCTCT", "switch fluorescence ratio": 1.03}
{"sequence": "GCGGCGATTA", "switch fluorescence ratio": 1.03}
{"sequence": "GCGGCGGCTA", "switch fluorescence ratio": 1}
{"sequence": "GCGGCGTCGT", "switch fluorescence ratio": 1.01}
{"sequence": "GCGGGAACG", "switch fluorescence ratio": 0.989}
{"sequence": "GCGGGAATG", "switch fluorescence ratio": 1.01}
{"sequence": "GCGGGAGTCA", "switch fluorescence ratio": 1.01}
{"sequence": "GCGGGATTGA", "switch fluorescence ratio": 1.04}
{"sequence": "GCGGGCGGAA", "switch fluorescence ratio": 0.964}
{"sequence": "GCGGGCGTGC", "switch fluorescence ratio": 1.01}
{"sequence": "GCGGGGAGCT", "switch fluorescence ratio": 0.966}
{"sequence": "GCGGGTGCGG", "switch fluorescence ratio": 0.987}
{"sequence": "GCGGGTTAGC", "switch fluorescence ratio": 1.07}
{"sequence": "GCGGGTTC", "switch fluorescence ratio": 0.927}
{"sequence": "GCGGGTTGTA", "switch fluorescence ratio": 1}
{"sequence": "GCGGTCAC", "switch fluorescence ratio": 1.49}
{"sequence": "GCGGTCAGCG", "switch fluorescence ratio": 0.965}
{"sequence": "GCGGTCGAC", "switch fluorescence ratio": 0.986}
{"sequence": "GCGGTGCATG", "switch fluorescence ratio": 1.02}
{"sequence": "GCGGTGGACA", "switch fluorescence ratio": 0.974}
{"sequence": "GCGGTTCTGA", "switch fluorescence ratio": 1.04}
{"sequence": "GCGGTTTAAC", "switch fluorescence ratio": 1.02}
{"sequence": "GCGGTTTAGC", "switch fluorescence ratio": 0.99}
{"sequence": "GCGGTTTTCC", "switch fluorescence ratio": 1.1}
{"sequence": "GCGTAAAATA", "switch fluorescence ratio": 1.02}
{"sequence": "GCGTACAGTT", "switch fluorescence ratio": 1}
{"sequence": "GCGTACCCAT", "switch fluorescence ratio": 1}
{"sequence": "GCGTAGAGCA", "switch fluorescence ratio": 1.09}
{"sequence": "GCGTAGATTT", "switch fluorescence ratio": 1.03}
{"sequence": "GCGTCAGGCA", "switch fluorescence ratio": 1}
{"sequence": "GCGTCAGGTC", "switch fluorescence ratio": 1.05}
{"sequence": "GCGTCGAGGG", "switch fluorescence ratio": 0.987}
{"sequence": "GCGTCGGAGC", "switch fluorescence ratio": 1.01}
{"sequence": "GCGTCGTTGC", "switch fluorescence ratio": 1.03}
{"sequence": "GCGTCTTTTC", "switch fluorescence ratio": 1}
{"sequence": "GCGTGACGG", "switch fluorescence ratio": 1.03}
{"sequence": "GCGTGAGTCC", "switch fluorescence ratio": 1.01}
{"sequence": "GCGTGATCTA", "switch fluorescence ratio": 0.98}
{"sequence": "GCGTGATGAC", "switch fluorescence ratio": 1.04}
{"sequence": "GCGTGCAAAA", "switch fluorescence ratio": 0.935}
{"sequence": "GCGTGGACAT", "switch fluorescence ratio": 1.01}
{"sequence": "GCGTGTTAAC", "switch fluorescence ratio": 0.996}
{"sequence": "GCGTTAACTT", "switch fluorescence ratio": 1}
{"sequence": "GCGTTAAGAA", "switch fluorescence ratio": 0.998}
{"sequence": "GCGTTAAGG", "switch fluorescence ratio": 0.988}
{"sequence": "GCGTTAATA", "switch fluorescence ratio": 1}
{"sequence": "GCGTTAATT", "switch fluorescence ratio": 1.02}
{"sequence": "GCGTTCGAAC", "switch fluorescence ratio": 1.02}
{"sequence": "GCGTTTAAAT", "switch fluorescence ratio": 0.986}
{"sequence": "GCGTTTAGGA", "switch fluorescence ratio": 1.02}
{"sequence": "GCGTTTTGA", "switch fluorescence ratio": 1.07}
{"sequence": "GCTAAATAGT", "switch fluorescence ratio": 1.01}
{"sequence": "GCTAAATTTG", "switch fluorescence ratio": 1.02}
{"sequence": "GCTAACTCTT", "switch fluorescence ratio": 1.03}
{"sequence": "GCTACAAGTT", "switch fluorescence ratio": 0.959}
{"sequence": "GCTACACCTA", "switch fluorescence ratio": 1.1}
{"sequence": "GCTAGACCGC", "switch fluorescence ratio": 1.07}
{"sequence": "GCTAGAGCGG", "switch fluorescence ratio": 0.994}
{"sequence": "GCTAGCACGC", "switch fluorescence ratio": 1.06}
{"sequence": "GCTAGCCTG", "switch fluorescence ratio": 0.967}
{"sequence": "GCTAGCCTGA", "switch fluorescence ratio": 1.03}
{"sequence": "GCTAGGTTGC", "switch fluorescence ratio": 0.983}
{"sequence": "GCTATATCAC", "switch fluorescence ratio": 1.02}
{"sequence": "GCTATGACGG", "switch fluorescence ratio": 1.04}
{"sequence": "GCTATTTGGT", "switch fluorescence ratio": 0.98}
{"sequence": "GCTCAACGAT", "switch fluorescence ratio": 1.06}
{"sequence": "GCTCAAGTTA", "switch fluorescence ratio": 0.995}
{"sequence": "GCTCAATGTT", "switch fluorescence ratio": 1.02}
{"sequence": "GCTCAGTACT", "switch fluorescence ratio": 1.05}
{"sequence": "GCTCATACGG", "switch fluorescence ratio": 1.07}
